The whole screen tested about 52,000 compounds, of which about 1,700 (3.3%) were called active. No stated cut-off is given here; in the data, active means survival mostly below about 52% (no sharp cut-off); inactive means mostly above about 56%. The list shows a part of the results.

For this test, the system named is Wild type. Nature of the test: S. aureus survival, RN4220 and DeltatarO strains – OD600, teichoic acid synthesis inhibitors, primary screen (AID 463173). The following applies: S. aureus RN4220 wild type/DeltatarO growth, OD600, 18 h, hits give low values, screened at 18.75 µg/mL (by protocol).
`Cc1ccc(OC(=O)CSc2nnc(CNC(=O)c3ccccc3)o2)cc1`: the survival was inactive: 87%.

As for `Cc1ccc(CCNC(=O)CCSCc2ccccc2Cl)cc1`, the survival is active: -3%. For `CC(C)n1nnnc1SCC(=O)c1ccc2c(c1)OCCO2`, the survival is inactive: 113%. Regarding `CCCn1c2ccccc2c2cnn(CC(=O)NC(CCSC)C(=O)OC)c(=O)c21` (stereo not drawn), the survival was inactive: 136%. As for `O=C(NCC(c1ccccc1)c1ccccc1)c1nn(-c2ccccc2F)nc1CO`, the survival is inactive: 122%. On to `CCOC(=O)c1nnc2c(-c3ccc(Cl)cc3)c(C)nn2c1C`, for which the survival was inactive: 52%.

Regarding `Cc1c(C(=O)NCCN(C)C)sc2nc3n(c(=O)c12)CCC3`, the survival is inactive: 84%. With `Cc1cc(C)cc(NC(=O)Cn2c3ncccc3c(=O)n2-c2ccc(C)c(C)c2)c1`, the survival was inactive: 74%. As for `O=C(NCc1ccccc1)c1ccc2c(c1)nc1n2CCCCC1`, the survival was inactive: 76%. For `CCC(NC(=O)c1ccccc1NC(=O)c1ccco1)C(=O)NC1CCCCC1` (stereo not drawn) the value was inactive: 104%.

Turning to `COC(=O)C1=C(C)N(Cc2cccnc2)C(=O)C1`, the survival was inactive: 105%. `O=C(Cn1cnc2nc3c(cc2c1=O)CCCC3)N1CCN(c2ccccc2)CC1`: the survival was inactive: 69%.

As to `Cc1ccc(CSc2ncc(Cl)c(C(=O)Nc3sc4c(c3C(N)=O)CCCC4)n2)cc1`, the survival is inactive: 115%.

With `CCn1c(SCC(=O)c2ccccc2)nnc1-c1ccco1`, the survival was inactive: 99%. Regarding `Cc1cccc(N2CCN(Cc3nnc(-c4ccc5c(c4)OCO5)o3)CC2)c1C`, the survival is inactive: 83%. As for `O=C(C1CC1)N1c2ccccc2Sc2ccccc21`, the survival was inactive: 104%. As for `CCc1nn2c(=O)cc(COc3ccc(/C=C(\C#N)C(=O)Nc4ccc(C)cc4)cc3)nc2s1`, the survival is inactive: 92%. For `Cc1ccc(-c2cc(C(F)(F)F)c(C#N)c(SCC(=O)O)n2)cc1`, the survival is inactive: 86%. Consider `O=C(Cn1c(=O)c2cccn2c2ccc(F)cc21)N1CCN(c2ccccc2)CC1`, for which the survival is inactive: 89%.

Consider `CCc1ccc(NC(=O)Cn2c(=O)n(CC3CCCO3)c(=O)c3cc(OC)c(OC)cc32)cc1` (stereo not drawn), for which the survival is inactive: 68%. As to `Cc1ccccc1CNC(=O)C(=O)NCC(c1cccs1)S(=O)(=O)c1ccc(Cl)cc1` (stereo not drawn), the survival is inactive: 74%. On to `O=C(CN1C(=O)C2CCCCN2c2ccc(C(=O)N3CCCC3)cc21)NCc1cccc(F)c1` (stereo not drawn), for which the survival is inactive: 65%. In the case of `COc1ccc(NC(=O)Nc2ccccc2OCc2cc(=O)n3ccccc3n2)c(OC)c1` it was inactive: 128%. Take `CC(=O)N(c1nnc(-c2ccc(C)cc2)s1)C1CCCC1`: the survival is inactive: 107%.

For `CCN(CC)c1ccc(NC(=O)CN2C(=O)c3cccnc3Sc3ccccc32)c(C)c1`, the survival was active: -4%.

Take `COCCN1Cc2cccc(C(=O)Nc3ccc(Cl)cc3Cl)c2C1=O`: the survival was inactive: 78%. In the case of `CC(C)NC(=O)Cn1nc(N2CCN(c3ccccc3)CC2)ccc1=O`, the survival was inactive: 66%. For `COc1ccc2oc(-c3ccc(C)c(NC(=O)CSc4ccc(Cl)cc4)c3)nc2c1`, the survival was inactive: 73%. Turning to `CC(=O)N1c2ccc(S(=O)(=O)N3CCN(c4cccc(Cl)c4)CC3)cc2CC1C` (stereo not drawn), the survival is inactive: 122%. In the case of `CC(=O)N1CCc2c(sc3c2c(=O)n(CCc2ccccc2)c(=O)n3Cc2cccc(C)c2)C1` it was inactive: 94%; in that of `O=c1c(=O)n(Cc2c(F)cccc2Cl)ccn1Cc1ccccc1`, inactive: 84%. On to `COc1ccc(N2CCN(C3C(=O)c4ccccc4N3C(C)=O)CC2)cc1` (stereo not drawn), for which the survival was inactive: 68%. As to `Cc1ccc(-c2c3c(=O)n(C)c(=O)n(C)c3cn2-c2cc(C)ccc2O)cc1`, the survival was inactive: 74%. For the molecule `Cc1ccc(-n2ncc3c(=O)n(CC(=O)N(C)C)cnc32)cc1`, the survival is inactive: 95%. As to `COc1cccc(NC(=O)Cn2c(=O)n(CC(=O)NCCc3ccccc3)c(=O)c3sccc32)c1`, the survival is inactive: 79%. With `Cc1c(Cl)cccc1NC(=O)CSc1nc(=O)n(Cc2cccnc2)c2c1CCC2`, the survival is inactive: 143%. For `COC(=O)C1CCN(C(c2ccccc2)c2sc3nc(-c4ccco4)nn3c2O)CC1` (stereo not drawn) the value was inactive: 65%. For `O=C1CC(c2nc(-c3ccccc3)no2)CN1c1ccc2c(c1)OCCO2` (stereo not drawn) the value was inactive: 74%; for `Cc1cc(Cl)ccc1NS(=O)(=O)c1ccc2c(c1)CC(C)N2C(=O)C1CCC1` (stereo not drawn), inactive: 71%; for `Cc1c(Cl)cccc1-n1ncc(C(=O)Nc2ccc(F)cc2F)c1C1CCN(C(=O)OC(C)(C)C)CC1`, inactive: 71%. For the molecule `Cc1ccc(Cn2cc(S(=O)(=O)c3ccc(C)cc3)c(=O)c3cc(F)c(N4CCCC4)cc32)cc1`, the survival is inactive: 72%. For the molecule `CCOc1cccc(NC(=O)c2ccc(F)c(S(=O)(=O)N(CC)c3cccc(C)c3)c2)c1`, the survival was inactive: 82%. Take `Cc1ccc(CNC(=O)C2CCN(C(=O)c3cnn(-c4ccccc4)c3-n3cccc3)CC2)cc1`: the survival is inactive: 92%. In the case of `O=C(Nc1nnc(S(=O)(=O)N2CCCCCC2)s1)c1ccccc1Br` it was inactive: 52%; in that of `COc1ccc2c(c1)CC(C(=O)NCCN1CCN(c3cccc(C)c3C)CC1)CO2` (stereo not drawn), inactive: 88%; in that of `COc1ccc2c(c1)c1c(c(=O)n(Cc3ccccc3)c(=O)n1CC(=O)Nc1ccc(C)cc1C)n2C`, active: -4%. `CC(C)CCNC(=O)Nc1cc(C(=O)NCc2cccc(F)c2)ccc1N1CCCC1`: the survival was inactive: 81%.

Consider `O=C(C1CCN(S(=O)(=O)Cc2ccccc2)CC1)N1CCN(c2cccc(Cl)c2)CC1`, for which the survival is inactive: 84%. In the case of `Cc1ccc(NC(=O)C2CCCN(S(=O)(=O)c3c(C)n[nH]c3C)C2)cc1C` (stereo not drawn) it was inactive: 127%; in that of `CSc1cccc(NC(=O)C2CCN(S(=O)(=O)c3ccc4[nH]c5c(c4c3)CCCCC5)CC2)c1`, inactive: 72%. On to `CCOC(=O)c1ccc(CN(Cc2ccc(C)cc2)S(=O)(=O)c2ccc(NC(C)=O)cc2)cc1`, for which the survival was inactive: 45%. Regarding `Cn1c(=O)[nH]c(=O)c2c1nc1n2CCCN1c1ccccc1`, the survival was inactive: 103%. With `CCn1cc2nc(SCc3ccc(F)cc3)n(Cc3ccc(Cl)cc3)c(=O)c2n1`, the survival is inactive: 80%.

For `CCCS(=O)(=O)N1CC(=O)N(c2ccc(Cl)cc2)C(C)(C(=O)NC2CCCC2)C1` (stereo not drawn), the survival was inactive: 90%.

`COCCCNC(=O)CN1C(=O)CSc2ccc(S(=O)(=O)N3CCOCC3)cc21`: the survival was inactive: 127%. For the molecule `CC(=O)Nc1ccc(Nc2nnc(-c3ccc(C)c(S(N)(=O)=O)c3)c3ccccc23)cc1`, the survival was inactive: 141%. With `Cc1cc(C)cc(N(CC(=O)NCc2ccco2)C(=O)c2snc(C(N)=O)c2N)c1`, the survival was inactive: 120%. In the case of `O=C(NCc1ccc2c(c1)CCN2C(=O)c1ccccc1)c1ccco1` it was inactive: 87%; in that of `O=C(Nc1ccc(S(=O)(=O)N(Cc2ccccc2)c2ccccc2)cc1)c1ccc([N+](=O)[O-])cc1`, inactive: 75%; in that of `Cc1ccc(NC(=O)C(=O)NCCc2csc3nc(-c4ccccc4C)nn23)cc1Cl`, inactive: 82%. As for `O=C(NC(=S)NC1CCSC1=O)c1ccco1` (stereo not drawn), the survival is inactive: 112%. Regarding `Cc1ccc(NC(=O)c2oc3ccc(S(=O)(=O)N4CCC5(CC4)OCCO5)cc3c2C)c(C)c1`, the survival is inactive: 143%.

Take `COCCn1c(SCC(=O)Nc2ccc(C(F)(F)F)cc2)nc2c([nH]c3ccccc32)c1=O`: the survival was inactive: 77%. On to `O=C(NCc1ccccc1Cl)c1ccc(NC(=O)N2CCSc3ncccc32)cc1`, for which the survival was inactive: 87%. Regarding `COc1cccc(N2CCN(C(=O)c3cc4c(=O)n(Cc5ccco5)ccc4nc3C)CC2)c1`, the survival is inactive: 113%. In the case of `COc1ccc(CCN2C(=O)C3CC=C(C)CC3C2=O)cc1OC` (stereo not drawn) it was inactive: 116%. As for `CCOC(=O)/C(C#N)=C/N1CCCc2ccccc21`, the survival was inactive: 111%. With `Cc1[nH]c2ccc(Cl)cc2c(=O)c1CN1CCN(C)CC1`, the survival is inactive: 109%.

For `Cc1ccc(OC(=O)CCC(=O)N2CCc3ccccc32)cc1`, the survival was inactive: 106%. Turning to `NCCNC(=O)c1c(O)c2cccc3c2n(c1=O)CCC3`, the survival was inactive: 102%. For `CCn1c(CCNC(=O)C2CCCO2)nnc1SC` (stereo not drawn) the value was inactive: 94%. Turning to `CCC1=C(c2ccc(C)cc2)S(=O)(=O)N=C1N1CCC(C(=O)NCc2ccccc2Cl)CC1`, the survival was inactive: 74%. Regarding `Cc1ccc(C)c(N2CCN(CCCNC(=O)c3nnc(Cc4ccc(F)cc4Cl)o3)CC2)c1`, the survival is inactive: 64%. With `CCOC(=O)c1cc(S(=O)(=O)N2CCN(c3ccc(F)cc3)CC2)[nH]n1`, the survival is inactive: 80%. Turning to `CCCN(CCC)CCNC(=O)C1CCCN(S(=O)(=O)c2cccc3nsnc23)C1` (stereo not drawn), the survival is inactive: 77%. As to `CCCCCOC(=O)c1ccc(OC(=O)c2sc3ncn(Cc4cccc(F)c4)c(=O)c3c2C)cc1`, the survival is inactive: 76%. `C=CCn1c(-c2ccccc2)c[nH]c1=S`: the survival was inactive: 109%. Regarding `COc1ccc(OC)c(NC(=O)N2CCC(CN3CCCCC3)CC2)c1`, the survival is inactive: 70%. For `COc1ccc(OC)c(CNc2sc3c(c2C(=O)Nc2cc(OC)ccc2OC)CCCC3)c1` the value was inactive: 72%; for `Cc1nc(SCc2ccc(Cl)cc2)c(C#N)c(C)c1Cl`, inactive: 32%. In the case of `CCOc1cc2[nH]c(=O)n(CCCC(=O)N3CCN(c4cccc(Cl)c4)CC3)c(=O)c2cc1OCC`, the survival was inactive: 71%. As for `CC(=O)N1CCCc2cc(S(=O)(=O)N3CCCC(C(=O)Nc4cccc(Cl)c4C)C3)ccc21` (stereo not drawn), the survival is inactive: 76%. As for `CCOC(=O)c1cnc2ccc(OCC)cc2c1Nc1cc(Cl)c(OC)cc1OC`, the survival is inactive: 60%. As to `CC(C)Cn1cc(C(=O)N2CCN(c3cccc(Cl)c3)CC2)c2c3ccccc3n(C)c2c1=O`, the survival is inactive: 79%. Consider `Cc1ccccc1N(CC(=O)NC1CCCC1)C(=O)c1csnn1`, for which the survival was inactive: 107%. For `Cc1ccc(C)c(OC(=O)CSc2nnc(-c3ccc4c(c3)OCO4)o2)c1` the value was inactive: 85%. For `CCOc1cc(C(=O)Nc2ccc(S(=O)(=O)Nc3cc(OC)nc(OC)n3)cc2)cc(OCC)c1OCC` the value was inactive: 89%; for `COC(=O)c1ccc(Cn2c(SCC(=O)N(C)c3ccccc3)nc3ccccc32)cc1`, inactive: 75%.

The values are drawn from PubChem BioAssay AID463173 (ICCB-Longwood Screening Facility, Harvard Medical School, 2010).
